# The list shows a part of the results.
# Key:
# Assay in all cases: glycan array binding signal (z-score within array); higher = stronger binding
# Conditions in all cases: glycan notation: IUPAC condensed, linker removed
# [1] = molecular target: GlcNAc(b1-3)Gal(b1-3)GalNAc
# How it was run: (§1)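 Glycan array data came from 3228 arrays in the Consortium for Functional Glycomics database, and only arrays with an available protein sequence were kept. Glycan names were put into IUPAC-condensed notation, and columns mapping to the same glycan were averaged. The binding signal is a within-array Z-score, averaged across arrays of one protein sequence run at different concentrations or buffers and across linkers. A negative Z-score can be read as non-binding.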
# GlcNAc(b1-3)Gal(b1-4)Glc = molecular target: GlcNAc(b1-3)Gal(b1-4)Glc
# How it was run: as §1
# [2] = molecular target: GlcNAc(b1-3)Gal(b1-4)GlcNAc
# How it was run: as §1
# [3] = molecular target: GlcNAc(b1-3)Gal(b1-4)GlcNAc(b1-2)Man(a1-3)[GlcNAc(b1-3)Gal(b1-4)GlcNAc(b1-2)Man(a1-6)]Man(b1-4)GlcNAc(b1-4)GlcNAc
# How it was run: as §1
# [4] = molecular target: GlcNAc(b1-3)Gal(b1-4)GlcNAc(b1-2)Man(a1-3)[GlcNAc(b1-3)Gal(b1-4)GlcNAc(b1-2)Man(a1-6)]Man(b1-4)GlcNAc(b1-4)[Fuc(a1-6)]GlcNAc
# How it was run: as §1
# [5] = molecular target: GlcNAc(b1-3)Gal(b1-4)GlcNAc(b1-2)[GlcNAc(b1-3)Gal(b1-4)GlcNAc(b1-6)]Man(a1-6)[GlcNAc(b1-3)Gal(b1-4)GlcNAc(b1-2)Man(a1-3)]Man(b1-4)GlcNAc(b1-4)GlcNAc
# How it was run: as §1
# [6] = molecular target: GlcNAc(b1-3)Gal(b1-4)GlcNAc(b1-3)Gal(b1-4)GlcNAc
# How it was run: as §1
# [7] = molecular target: GlcNAc(b1-3)Gal(b1-4)GlcNAc(b1-3)Gal(b1-4)GlcNAc(b1-2)Man(a1-3)[GlcNAc(b1-3)Gal(b1-4)GlcNAc(b1-3)Gal(b1-4)GlcNAc(b1-2)Man(a1-6)]Man(b1-4)GlcNAc(b1-4)GlcNAc
# How it was run: as §1
# [8] = molecular target: GlcNAc(b1-3)Gal(b1-4)GlcNAc(b1-3)Gal(b1-4)GlcNAc(b1-2)Man(a1-3)[GlcNAc(b1-3)Gal(b1-4)GlcNAc(b1-3)Gal(b1-4)GlcNAc(b1-2)Man(a1-6)]Man(b1-4)GlcNAc(b1-4)[Fuc(a1-6)]GlcNAc
# How it was run: as §1
# [9] = molecular target: GlcNAc(b1-3)Gal(b1-4)GlcNAc(b1-3)Gal(b1-4)GlcNAc(b1-2)[GlcNAc(b1-3)Gal(b1-4)GlcNAc(b1-3)Gal(b1-4)GlcNAc(b1-6)]Man(a1-6)[GlcNAc(b1-3)Gal(b1-4)GlcNAc(b1-3)Gal(b1-4)GlcNAc(b1-2)Man(a1-3)]Man(b1-4)GlcNAc(b1-4)[Fuc(a1-6)]GlcNAc
# How it was run: as §1
# [10] = molecular target: GlcNAc(b1-3)Gal(b1-4)GlcNAc(b1-3)Gal(b1-4)GlcNAc(b1-3)Gal(b1-4)GlcNAc(b1-2)Man(a1-3)[GlcNAc(b1-3)Gal(b1-4)GlcNAc(b1-3)Gal(b1-4)GlcNAc(b1-3)Gal(b1-4)GlcNAc(b1-2)Man(a1-6)]Man(b1-4)GlcNAc(b1-4)GlcNAc
# How it was run: as §1
# [11] = molecular target: GlcNAc(b1-3)Gal(b1-4)GlcNAc(b1-3)Gal(b1-4)GlcNAc(b1-3)Gal(b1-4)GlcNAc(b1-2)Man(a1-3)[GlcNAc(b1-3)Gal(b1-4)GlcNAc(b1-3)Gal(b1-4)GlcNAc(b1-3)Gal(b1-4)GlcNAc(b1-2)Man(a1-6)]Man(b1-4)GlcNAc(b1-4)[Fuc(a1-6)]GlcNAc
# How it was run: as §1
# [12] = molecular target: GlcNAc(b1-3)Gal(b1-4)GlcNAc(b1-3)Gal(b1-4)GlcNAc(b1-3)Gal(b1-4)GlcNAc(b1-2)[GlcNAc(b1-3)Gal(b1-4)GlcNAc(b1-3)Gal(b1-4)GlcNAc(b1-3)Gal(b1-4)GlcNAc(b1-6)]Man(a1-6)[GlcNAc(b1-3)Gal(b1-4)GlcNAc(b1-3)Gal(b1-4)GlcNAc(b1-3)Gal(b1-4)GlcNAc(b1-2)Man(a1-3)]Man(b1-4)GlcNAc(b1-4)[Fuc(a1-6)]GlcNAc
# How it was run: as §1
# [13] = molecular target: GlcNAc(b1-3)Gal(b1-4)GlcNAc(b1-3)Gal(b1-4)GlcNAc(b1-3)Gal(b1-4)GlcNAc(b1-3)Gal(b1-4)GlcNAc(b1-2)Man(a1-3)[GlcNAc(b1-3)Gal(b1-4)GlcNAc(b1-3)Gal(b1-4)GlcNAc(b1-3)Gal(b1-4)GlcNAc(b1-3)Gal(b1-4)GlcNAc(b1-2)Man(a1-6)]Man(b1-4)GlcNAc(b1-4)GlcNAc
# How it was run: as §1
# [14] = molecular target: GlcNAc(b1-3)Gal(b1-4)GlcNAc(b1-3)Gal(b1-4)GlcNAc(b1-3)Gal(b1-4)GlcNAc(b1-3)Gal(b1-4)GlcNAc(b1-2)Man(a1-3)[GlcNAc(b1-3)Gal(b1-4)GlcNAc(b1-3)Gal(b1-4)GlcNAc(b1-3)Gal(b1-4)GlcNAc(b1-3)Gal(b1-4)GlcNAc(b1-2)Man(a1-6)]Man(b1-4)GlcNAc(b1-4)[Fuc(a1-6)]GlcNAc
# How it was run: as §1
# [15] = molecular target: GlcNAc(b1-3)Gal(b1-4)GlcNAc(b1-3)Gal(b1-4)GlcNAc(b1-3)Gal(b1-4)GlcNAc(b1-3)Gal(b1-4)GlcNAc(b1-2)[GlcNAc(b1-3)Gal(b1-4)GlcNAc(b1-3)Gal(b1-4)GlcNAc(b1-3)Gal(b1-4)GlcNAc(b1-3)Gal(b1-4)GlcNAc(b1-6)]Man(a1-6)[GlcNAc(b1-3)Gal(b1-4)GlcNAc(b1-3)Gal(b1-4)GlcNAc(b1-3)Gal(b1-4)GlcNAc(b1-3)Gal(b1-4)GlcNAc(b1-2)Man(a1-3)]Man(b1-4)GlcNAc(b1-4)[Fuc(a1-6)]GlcNAc
# How it was run: as §1
# [16] = molecular target: GlcNAc(b1-3)Gal(b1-4)GlcNAc(b1-3)Gal(b1-4)GlcNAc(b1-3)GalNAc
# How it was run: as §1
# [17] = molecular target: GlcNAc(b1-3)Gal(b1-4)GlcNAc(b1-3)GalNAc
# How it was run: as §1
# [18] = molecular target: GlcNAc(b1-3)Gal(b1-4)GlcNAc(b1-3)[GlcNAc(b1-3)Gal(b1-4)GlcNAc(b1-3)]GalNAc
# How it was run: as §1
# [19] = molecular target: GlcNAc(b1-3)Gal(b1-4)GlcNAc(b1-6)[Gal(b1-3)]GalNAc
# How it was run: as §1
# [20] = molecular target: GlcNAc(b1-3)Gal(b1-4)GlcNAc(b1-6)[GlcNAc(b1-3)Gal(b1-3)]GalNAc
# How it was run: as §1
# [21] = molecular target: GlcNAc(b1-3)Gal(b1-4)GlcNAc(b1-6)[GlcNAc(b1-3)]Gal(b1-4)GlcNAc
# How it was run: as §1
# GlcNAc(b1-3)GalNAc = molecular target: GlcNAc(b1-3)GalNAc
# How it was run: as §1
# GlcNAc(b1-3)Man = molecular target: GlcNAc(b1-3)Man
# How it was run: as §1
# [22] = molecular target: GlcNAc(b1-3)[GlcNAc(b1-4)][GlcNAc(b1-6)]GlcNAc
# How it was run: as §1
# [23] = molecular target: GlcNAc(b1-3)[GlcNAc(b1-6)]Gal(b1-4)GlcNAc
# How it was run: as §1
# [24] = molecular target: GlcNAc(b1-3)[GlcNAc(b1-6)]GalNAc
# How it was run: as §1
# [25] = molecular target: GlcNAc(b1-4)Gal(b1-4)GlcNAc
# How it was run: as §1
# GlcNAc(b1-4)GlcNAc = molecular target: GlcNAc(b1-4)GlcNAc
# How it was run: as §1
# [26] = molecular target: GlcNAc(b1-4)GlcNAc(b1-4)GlcNAc
# How it was run: as §1
# [27] = molecular target: GlcNAc(b1-4)GlcNAc(b1-4)GlcNAc(b1-4)GlcNAc(b1-4)GlcNAc
# How it was run: as §1
# [28] = molecular target: GlcNAc(b1-4)GlcNAc(b1-4)GlcNAc(b1-4)GlcNAc(b1-4)GlcNAc(b1-4)GlcNAc
# How it was run: as §1
# [29] = molecular target: GlcNAc(b1-4)[GlcNAc(b1-6)]GalNAc
# How it was run: as §1
# [30] = molecular target: GlcNAc(b1-6)Gal(b1-4)GlcNAc
# How it was run: as §1
# GlcNAc(b1-6)GalNAc = molecular target: GlcNAc(b1-6)GalNAc
# How it was run: as §1
# [31] = molecular target: GlcNAc6S(b1-3)Gal(b1-4)GlcNAc
# How it was run: as §1
# Kdn(a2-3)Gal(b1-3)GalNAc = molecular target: Kdn(a2-3)Gal(b1-3)GalNAc
# How it was run: as §1
# Kdn(a2-3)Gal(b1-3)GlcNAc = molecular target: Kdn(a2-3)Gal(b1-3)GlcNAc
# How it was run: as §1
# Kdn(a2-3)Gal(b1-4)Glc = molecular target: Kdn(a2-3)Gal(b1-4)Glc
# How it was run: as §1
# Kdn(a2-3)Gal(b1-4)GlcNAc = molecular target: Kdn(a2-3)Gal(b1-4)GlcNAc
# How it was run: as §1
# [32] = molecular target: Kdn(a2-3)Gal(b1-4)[Fuc(a1-3)]GlcNAc
# How it was run: as §1
# Kdn(a2-6)Gal(b1-4)GlcNAc = molecular target: Kdn(a2-6)Gal(b1-4)GlcNAc
# How it was run: as §1
# [33] = molecular target: Man(a1-2)Man(a1-2)Man(a1-3)Man
# How it was run: as §1
# [34] = molecular target: Man(a1-2)Man(a1-2)Man(a1-6)[Man(a1-3)]Man
# How it was run: as §1
# Man(a1-2)Man(a1-3)Man = molecular target: Man(a1-2)Man(a1-3)Man
# How it was run: as §1
binder,measurement,setting,value
APVPVTKLVCDGDTYKCTAYLDFGDGRWVAQWDTNVFHTG [PhoSpL (Pholiota squarrosa)],glycan array binding signal (z-score),[1],-0.211
same,glycan array binding signal (z-score),GlcNAc(b1-3)Gal(b1-4)Glc,-0.305
same,glycan array binding signal (z-score),[2],-0.32
same,glycan array binding signal (z-score),[3],0.18
same,glycan array binding signal (z-score),[4],2.47
same,glycan array binding signal (z-score),[5],-0.099
same,glycan array binding signal (z-score),[6],-0.294
same,glycan array binding signal (z-score),[7],0.126
same,glycan array binding signal (z-score),[8],1.44
same,glycan array binding signal (z-score),[9],0.584
same,glycan array binding signal (z-score),[10],-0.182
same,glycan array binding signal (z-score),[11],0.9
same,glycan array binding signal (z-score),[12],0.229
same,glycan array binding signal (z-score),[13],-0.144
same,glycan array binding signal (z-score),[14],0.617
same,glycan array binding signal (z-score),[15],0.7
same,glycan array binding signal (z-score),[16],0.187
same,glycan array binding signal (z-score),[17],0.385
same,glycan array binding signal (z-score),[18],-0.273
same,glycan array binding signal (z-score),[19],0.53
same,glycan array binding signal (z-score),[20],-0.107
same,glycan array binding signal (z-score),[21],-0.337
same,glycan array binding signal (z-score),GlcNAc(b1-3)GalNAc,-0.205
same,glycan array binding signal (z-score),GlcNAc(b1-3)Man,0.405
same,glycan array binding signal (z-score),[22],-0.681
same,glycan array binding signal (z-score),[23],-0.249
same,glycan array binding signal (z-score),[24],-0.392
same,glycan array binding signal (z-score),[25],-0.264
same,glycan array binding signal (z-score),GlcNAc(b1-4)GlcNAc,-0.218
same,glycan array binding signal (z-score),[26],-0.07
same,glycan array binding signal (z-score),[27],0.119
same,glycan array binding signal (z-score),[28],-0.168
same,glycan array binding signal (z-score),[29],-0.295
same,glycan array binding signal (z-score),[30],-0.222
same,glycan array binding signal (z-score),GlcNAc(b1-6)GalNAc,0.176
same,glycan array binding signal (z-score),[31],-0.056
same,glycan array binding signal (z-score),Kdn(a2-3)Gal(b1-3)GalNAc,-0.679
same,glycan array binding signal (z-score),Kdn(a2-3)Gal(b1-3)GlcNAc,0.007
same,glycan array binding signal (z-score),Kdn(a2-3)Gal(b1-4)Glc,-0.2
same,glycan array binding signal (z-score),Kdn(a2-3)Gal(b1-4)GlcNAc,-0.163
same,glycan array binding signal (z-score),[32],-0.393
same,glycan array binding signal (z-score),Kdn(a2-6)Gal(b1-4)GlcNAc,-0.023
same,glycan array binding signal (z-score),[33],-0.197
same,glycan array binding signal (z-score),[34],-0.173
same,glycan array binding signal (z-score),Man(a1-2)Man(a1-3)Man,-0.372

# — the supplement of paper PMC8728848
